# Measurements published in PubChem BioAssay AID504845 (National Center for Advancing Translational Sciences (NCATS), 2011).
# Out of some 390,000 compounds screened, about 150 (0.038%) were called active. This list was built around the results that the source calls inconclusive (neither active nor inactive); the mix of calls is not that of the screen. Calls follow the shape of the dose curve; as a rule, active = well fitted inhibition curve with a large enough effect; inconclusive = small, poorly fitted or top-dose-only effect; inactive = no such curve, though single readings can be large or run the other way. Potencies beside an inconclusive call are fits to weak or partial responses and may not hold up. A structure can be active in one record and inactive in another.
# Molecular target: Regulator of G-protein signaling 4 (Homo sapiens) (UniProt P49798)
# Chain of UniProt P49798 (P49798 whole entry, looked up): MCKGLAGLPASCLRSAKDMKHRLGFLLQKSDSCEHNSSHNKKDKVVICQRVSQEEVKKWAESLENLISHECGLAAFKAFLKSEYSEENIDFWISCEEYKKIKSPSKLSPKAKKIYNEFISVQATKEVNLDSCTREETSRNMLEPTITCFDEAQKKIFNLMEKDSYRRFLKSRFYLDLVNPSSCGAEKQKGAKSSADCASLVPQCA
# Assay: Inhibitors of Regulator of G Protein Signaling (RGS) 4: qHTS; also: nearly all actives have a fitted effect of over 75% in size
# Conditions: Transcreener GDP fluorescence polarization, RGS4-accelerated GTP hydrolysis; series mostly up to 114 µM
# How it was run: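 MLSMR compounds (23 nl, pin-transferred) preincubated 10 min at room temperature with a 500nM (2x) first reagent, then RGS4 at 900nM (2x) plus Transcreener GDP mix added; fluorescence polarization (620/688 nm) read before and after 90 min at 30 °C.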
# % is scaled to controls: 0 for no effect and ±100 for the full control effect; potency is read from the fitted curve at half-maximal effect; tags tell the direction and shape of the fitted curve.
SMILES,Potency,"activity change, negative = inhibition"
COC(=O)c1ccccc1NC(=S)NC(=O)c1ccccc1,"inconclusive: 50.1 µM [inhibitor, partial curve, poor fit]",
Cc1n[nH]c(C)c1S(=O)(=O)N1CCCC(C(=O)N2CCN(c3ccc(Cl)cc3)CC2)C1 (centres undefined),inactive,
COc1ccc(-c2csc(NC3CCCCC3)n2)c(OC)c1,"inconclusive: 79.4 µM [inhibitor, partial curve, poor fit]",
S=c1[nH]nc(-c2ccco2)n1/N=C/C=C/c1ccccc1,"inconclusive: 79.4 µM [inhibitor, partial curve, poor fit]",
CCc1ccc(-c2nc(CS(=O)CC(=O)NCc3ccc(F)cc3)c(C)o2)cc1 (centres undefined),inactive,
C/C=C\C=C/C(=O)Nc1cccc(C2=NOC3(C2)C[C@H](C(N)=O)N(C(=O)c2ccc(OC)cc2)C3)c1 (some centres undefined),"inconclusive: 44.7 µM [inhibitor, partial curve, poor fit]",
CCOC(=O)C1CCN(C(=O)c2ccc(Cl)c(S(=O)(=O)N3CCCC3)c2)CC1,inactive,
Cc1ccc(NCc2cc3cc4c(cc3n(CC(=O)Nc3ccc(C)cc3)c2=O)OCCO4)cc1,"inconclusive: 79.4 µM [inhibitor, single point]",
N#Cc1ccccc1-n1c(N)c(C(=O)N2CCCC2)sc1=S,"inconclusive: 100 µM [inhibitor, partial curve, poor fit]",
Cc1cccc(C)c1NC(=O)CSc1nnc(C)n1CC1CCCO1 (centres undefined),"inconclusive: 31.6 µM [inhibitor, full curve, poor fit]",
CCCCN(CC)C(=O)c1ccc2c(c1)NC(=O)c1ccccc1S2,inactive,
O=C(NCc1ccncc1)/C(=N/O)c1ccccc1,"inconclusive: 100 µM [inhibitor, single point]",
O=C(Cc1c[nH]c2ccccc12)NCc1ccc(Cl)cc1,inactive,
CCOC(=O)C(NC(=O)c1ccccc1)(Nc1cc(C)on1)C(F)(F)F (centres undefined),inactive,
O=S(=O)(NCC(c1cccs1)S(=O)(=O)c1ccccc1)c1ccccc1 (centres undefined),inactive,
N#CCCCN1C(=O)C(=C(C#N)C#N)c2ccccc21,inactive,
CC(OC(=O)c1cc2sccc2n1C)C(=O)NCc1ccc(F)cc1 (centres undefined),,inactive: 2.52% [at 11.4 µM]
Cc1ccc(-n2c(=O)c3ccc(C(=O)NCc4ccco4)cc3n(CC(=O)Nc3ccc(C)c(F)c3)c2=O)cc1,"inconclusive: 50.1 µM [inhibitor, partial curve, poor fit]",
CC1CCc2c(sc(NC(=S)NC(=O)c3ccccc3)c2C#N)C1 (centres undefined),"inconclusive: 89.1 µM [inhibitor, partial curve, poor fit]",
CC1CC(C)(C)N(C(=O)CN2CCN(C)CC2)c2ccccc21 (centres undefined),inactive,
CC(=O)c1ccc(NC(=O)c2cc(Cl)sc2Cl)cc1,inactive,
CCCCn1c(CN(Cc2ccccc2)Cc2ccccc2)nc2c1c(=O)n(C)c(=O)n2C,inactive,
COc1ccc(Cn2ccc3nc(C)c(C(=O)Nc4cc(OC)c(OC)c(OC)c4)cc3c2=O)cc1,"inconclusive: 28.2 µM [inhibitor, full curve, poor fit]",

SMILES,Potency,"activity change, negative = inhibition"
COc1ccccc1NC(=O)NNC(=O)COc1ccc2ccccc2c1,inactive,
O=C(CCN1CCCC1)c1cccs1,"inconclusive: 89.1 µM [inhibitor, single point]",
Cc1cc2nc(C)c(=O)n(C)c2cc1C,"inconclusive: 25.1 µM [inhibitor, full curve, poor fit]",
CC1Cc2cc(S(=O)(=O)CCC(=O)Nc3ccccc3F)ccc2N1C(=O)C1CC1 (centres undefined),inactive,
Cc1ccc(-c2ccccc2)n1-c1cccc(C(=O)O)c1,"inconclusive: 50.1 µM [inhibitor, partial curve, poor fit]",
COc1ccc(Cl)cc1S(=O)(=O)Nc1ncn[nH]1,"inconclusive: 89.1 µM [inhibitor, single point]",
O=C(NC1CCCCC1)c1ccc(CSc2nc3cccnc3n2Cc2cccc(F)c2)cc1,inactive,
COc1ccc(NC(=S)N2CCC(C(O)(c3ccccc3)c3ccccc3)CC2)cc1,inactive,
CCOc1ccc(S(=O)(=O)N2CCOCC2)cc1NC(=O)CSCc1ccc(C)cc1,inactive,
O=C(Nc1cccc(Br)c1)N1CCN2CCCCC2C1 (centres undefined),inactive,
C(=C/c1nccc2c1[nH]c1ccccc12)/c1ccc2c(c1)OCO2,"inconclusive: 79.4 µM [inhibitor, partial curve, poor fit]",
CCCNC(=O)Cn1nc(-c2ccc(OC)cc2)c2cnc3ccc(F)cc3c21,"inconclusive: 89.1 µM [inhibitor, single point]",
Cn1c(COc2ccccc2Br)nc2ccccc21,inactive,
O=C(O)Cc1sc(Nc2cccc3ccccc23)nc1-c1ccc(Cl)cc1,inactive,
NC(=O)[C@H](Cc1cc2ccccc2s1)NC(=O)[C@@H]1CC2(CC(c3cccc(NC(=O)[C@@H]4CCC(=O)N4)c3)=NO2)CN1C(=O)/C=C/c1c(F)cccc1Cl (some centres undefined),"inconclusive: 79.4 µM [inhibitor, partial curve, poor fit]",
N#Cc1ccc(-c2ccco2)nc1SCc1ccccc1,inactive,
COCCN(C(=O)CSc1nnc(C)n1Cc1ccccc1)c1c(N)n(Cc2ccccc2)c(=O)[nH]c1=O,"inconclusive: 35.5 µM [inhibitor, full curve, poor fit]",
CC(=O)c1cccc(NC(=O)N2C3CCC2CC(O)(c2cccnc2)C3)c1 (centres undefined),inactive,
Oc1ccc2ccccc2c1C=Nc1ccccc1Br,"inconclusive: 56.2 µM [inhibitor, partial curve, poor fit]",
O=C(O)CSc1cc(C(=O)c2cc(F)ccc2O)cn2c(=O)c3c(-c4ccccc4)csc3nc12,"inconclusive: 79.4 µM [inhibitor, partial curve, poor fit]",
CCCSC1=N/C(=C\c2ccc([N+](=O)[O-])o2)C(=O)S1,"inconclusive: 28.2 µM [inhibitor, full curve, poor fit]",
COC(=O)c1ccc(CCc2cc(O)ccc2O)cc1,"inconclusive: 50.1 µM [inhibitor, partial curve, poor fit]",
COc1ccc(/C=C2\SC(=O)N(CCNC(=O)CCS(=O)(=O)c3ccc(C)cc3)C2=O)cc1,"inconclusive: 50.1 µM [inhibitor, partial curve, poor fit]",

SMILES,Potency,"activity change, negative = inhibition"
CCOC(=O)Cc1csc(NC(=O)CCCCCN2C(=O)c3cccc4cccc(c34)C2=O)n1,"inconclusive: 39.8 µM [inhibitor, partial curve, poor fit]",
O=C(CCCC(=O)c1ccccc1)NCc1ccccc1,"inconclusive: 89.1 µM [inhibitor, partial curve, poor fit]",
Cc1ccc(O)c(C=Nc2ccc3[nH]ncc3c2)c1,"inconclusive: 50.1 µM [inhibitor, partial curve, poor fit]",
COc1cccc(Nc2nc(-c3sc(NC(=O)c4ccccc4)nc3C)cs2)c1,"inconclusive: 35.5 µM [inhibitor, partial curve, poor fit]",
O=C(c1cccnc1)c1ncc(C(F)(F)F)cc1Cl,inactive,
O=C(CC(Nc1ccccc1Cl)C(=O)OCC(=O)c1cccs1)c1ccccc1 (centres undefined),"inconclusive: 79.4 µM [inhibitor, partial curve, poor fit]",
CC1CCN(C(=S)Nc2ccc(F)cc2)CC1,"inconclusive: 79.4 µM [inhibitor, single point]",
Oc1cc(O)cc(/C=C/c2ccc(O)c(O)c2)c1,active: 21.2 µM,
CC(=O)c1cccc(NC(=O)c2cccc(NC(=O)c3ccco3)c2)c1,"inconclusive: 35.5 µM [inhibitor, partial curve, poor fit]",
CC(C)c1ccc(S(=O)(=O)N2CCN(C(=O)C3CCN(C(=O)c4ccc(F)cc4)CC3)CC2)cc1,"inconclusive: 89.1 µM [inhibitor, single point]",
CCN(Cc1ccccc1)C(=O)CSc1nc(C)cc(C)c1C#N,"inconclusive: 31.6 µM [inhibitor, full curve, poor fit]",
COC(=O)c1sc2ncccc2c1OCc1cccc(Cl)c1,inactive,
CC(=O)c1ccc(C(=O)Nc2ccc3c(c2)C(=O)NC3=O)cc1,"inconclusive: 89.1 µM [inhibitor, single point]",
O=C(c1nnsc1S(=O)c1ccc(Cl)cc1)N1CCOCC1 (centres undefined),"inconclusive: 70.8 µM [inhibitor, partial curve, poor fit]",
COc1ccc(NC(=O)CSc2nc(-c3cc(OC)c(OC)c(OC)c3)[nH]c2-c2ccc(F)cc2)cc1,inactive,
CC1C/C(=N\NC(N)=S)c2cc(Cl)ccc2S1 (centres undefined),inactive,
COc1ccccc1NC(=O)Nc1sccc1-c1nc2ccccc2s1,"inconclusive: 56.2 µM [inhibitor, partial curve, poor fit]",
Cc1ccc(Nc2nc(-c3ccncc3)cs2)cc1,"inconclusive: 89.1 µM [inhibitor, partial curve, poor fit]",
CCCn1c(-c2ccccc2)cc(SC)c(C#N)c1=O,inactive,
CCOC(=O)c1c(NC(=O)CSc2nnc(-c3ccc(Cl)cc3)o2)sc2c1CCC2,"inconclusive: 100 µM [inhibitor, partial curve, poor fit]",
CCOC(=O)C1=C(C)N=c2s/c(=C\c3ccc(O)c([N+](=O)[O-])c3)c(=O)n2C1c1ccccc1OC (centres undefined),inactive,
CC(C(=O)Nc1cccc([N+](=O)[O-])c1)N1CCN(C/C=C/c2ccccc2)CC1 (centres undefined),inactive,
COc1cc(C(C2C(=O)CC(C)(C)CC2=O)C2C(=O)CC(C)(C)CC2=O)cc(OC)c1OC,"inconclusive: 17.8 µM [inhibitor, full curve, poor fit]",
